Here are results for 42 sequences from PMC7819943, “Rice protein-binding microarrays: a tool to detect cis-acting elements near promoter regions in rice”.

This is one part of the list.

This test deals with T1, OsWOX13 (Oryza sativa, UniProt Q5QMM3 1-267).
T1 sequence: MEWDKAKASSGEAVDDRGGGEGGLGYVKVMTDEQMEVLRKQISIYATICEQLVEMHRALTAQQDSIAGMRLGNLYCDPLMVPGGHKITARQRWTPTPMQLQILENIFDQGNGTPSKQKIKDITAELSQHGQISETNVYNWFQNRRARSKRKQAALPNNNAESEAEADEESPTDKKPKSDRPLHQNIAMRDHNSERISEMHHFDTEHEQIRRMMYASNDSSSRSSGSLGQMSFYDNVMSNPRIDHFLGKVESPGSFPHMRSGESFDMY
The test can be described thus: protein-binding microarray (RPBM); PBS, 2% BSA, 51.3 ng/ul salmon testes DNA, 50 uM zinc acetate, 200 nM TF, 25 C, 1 h; high values mean tight binding. The settings on record: protein: recombinant; tags: N-terminal polyhistidine and DsRed monomer fusion (pET32a); label: CyDye5-dUTP incorporated in the synthesized complementary strand; 3' TTTTT single-stranded linker to array surface; dsDNA, one strand shown. The method in brief:
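Binding signal is reported as fluorescence intensity per feature (arbitrary units) from an Axon 4000B scanner. Incubation used 200 nM of each Ni–NTA-purified, N-terminally polyhistidine- and DsRed-fused transcription factor from E. coli BL21-CodonPlus on a double-stranded custom Agilent array for 1 h at 25 °C, with 50 µM zinc acetate in the buffer, followed by washing.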
As for “CGGCTGATTGACCGGGTGGGGCGCCGGCGACCGCCACCACCGGAGTCACCTAGTGCAG”, the binding signal was 33400 fluorescence intensity (a.u.).

As for “AGACTAATTGAAGCTAGGATATATGATGCAAGGAGAGAGGCGGAGTCACCTAGTGCAG”, the binding signal was 29500 fluorescence intensity (a.u.).

Regarding “TATATATATATATATATATATAATTCGTTTGTGGTACATACGGAGTCACCTAGTGCAG”, the binding signal is 16100 fluorescence intensity (a.u.).

Consider “TTGATTGATGTCATTTAAATTATCATTGGTCTTGGTGTATCGGAGTCACCTAGTGCAG”, for which the binding signal is 41100 fluorescence intensity (a.u.).

With “TTGATTAGTAGTAGTGGAGTACTTAGTAACCGGCCGGTTTCGGAGTCACCTAGTGCAG”, the binding signal is 8000 fluorescence intensity (a.u.).

As to “AAAAGCAAACATGATTTGTACTTGTGATTTCGAGTTCTCACGGAGTCACCTAGTGCAG”, the binding signal was 4760 fluorescence intensity (a.u.).

“GTTGAACTTATTCCAATCAAGGATCACGCATTCACGTTCACGGAGTCACCTAGTGCAG”: the binding signal is 14100 fluorescence intensity (a.u.).

With “AAGTTAACTTTGATCTGAATTGAATATATACTCAGTGAAGCGGAGTCACCTAGTGCAG”, the binding signal is 9560 fluorescence intensity (a.u.).

On to “GCCCGTTGCTCATCTCTCTCATCGTTTATCGCATTAAAATCGGAGTCACCTAGTGCAG”, for which the binding signal is 4230 fluorescence intensity (a.u.).

As for “ACTTGACAGGTAGCTCGGCCTTCTTTTCTCTCTCTCTCTCCGGAGTCACCTAGTGCAG”, the binding signal is 21100 fluorescence intensity (a.u.).

For “GTACCAGCTAGCTAGCCAATCACGATATACAATTATACATCGGAGTCACCTAGTGCAG”, the binding signal was 3210 fluorescence intensity (a.u.).

Take “CGTGGTCTCTAATTTGTTTTGTTCGTTCTCCTTTCTTGTTCGGAGTCACCTAGTGCAG”: the binding signal was 4660 fluorescence intensity (a.u.).

On to “CTTACCAAAATTTAAATTTTGGCAGGATTTCTTATATAGTCGGAGTCACCTAGTGCAG”, for which the binding signal was 4040 fluorescence intensity (a.u.).

As for “TAAATTCAATTTAAATTTGAATTCAAATTTTATAGACCTACGGAGTCACCTAGTGCAG”, the binding signal was 27500 fluorescence intensity (a.u.).

“TGGCTTAATTTAATCCCCTCCATTCCGGATGCCTCTCCCTCGGAGTCACCTAGTGCAG”: the binding signal was 20200 fluorescence intensity (a.u.).

For “ATGAGGAAATTGTTCAATTAAGATGATTCATTATCTTCTACGGAGTCACCTAGTGCAG”, the binding signal was 7070 fluorescence intensity (a.u.).

Consider “AATTAAATTAGGCGAAATGAAAAGAAAGTCCCTGACCGAACGGAGTCACCTAGTGCAG”, for which the binding signal was 6550 fluorescence intensity (a.u.).

“GGAAATGTTATAATTGACTTACCTTGTGAAACGGAAGGAGCGGAGTCACCTAGTGCAG”: the binding signal is 28700 fluorescence intensity (a.u.).

For the sequence “TATTGATTGGTTCAGATGGAGACATGTGCAACTTCGTGCTCGGAGTCACCTAGTGCAG”, the binding signal is 61700 fluorescence intensity (a.u.).

As to “CGCCCGGCGTCCCAATCATTGGGCGCTTTGTTTGCTTGCGCGGAGTCACCTAGTGCAG”, the binding signal is 4000 fluorescence intensity (a.u.).

As for “AGGCCCAATGATTTGTAAGGTGGGACATGACATAAGTGTGCGGAGTCACCTAGTGCAG”, the binding signal was 13800 fluorescence intensity (a.u.).

“GTTTGATGCAAATGGGAAATTGGCGTGTGGGGCCGGAGGGCGGAGTCACCTAGTGCAG”: the binding signal is 4380 fluorescence intensity (a.u.).

As for “CAAATAAAATTCAATAATTGTATACTCCTTATCTTGGATTCGGAGTCACCTAGTGCAG”, the binding signal is 4310 fluorescence intensity (a.u.).

With “ATTAATTAAGTTATATACAGCAGTAGTTAATTAACTAGCTCGGAGTCACCTAGTGCAG”, the binding signal was 30400 fluorescence intensity (a.u.).

In the case of “CCCATAAATTTCTGGCCATTGATTCTTGGTCGAATGGCTACGGAGTCACCTAGTGCAG”, the binding signal was 5840 fluorescence intensity (a.u.).

For “CTAACTGATACTAATTTCTTAGCAATTGTTTGTGGGTAGTCGGAGTCACCTAGTGCAG”, the binding signal is 23100 fluorescence intensity (a.u.).

“TACCATAATTTTGTCATTCTTGTTGAAATTTTGTAACATACGGAGTCACCTAGTGCAG”: the binding signal was 9640 fluorescence intensity (a.u.).

For “TTATAATTAATTACATAAAGTAAATCTTTCTCAACTTTTCCGGAGTCACCTAGTGCAG”, the binding signal is 27400 fluorescence intensity (a.u.).

“ACATAATTTGGGCCCACCTGTAGGTGAAAATCCCGTTCTCCGGAGTCACCTAGTGCAG”: the binding signal is 4950 fluorescence intensity (a.u.).

As to “GTTTGTTCTTTGTTTGATTAGCTTGAGAGGAAGGGGATAACGGAGTCACCTAGTGCAG”, the binding signal was 7520 fluorescence intensity (a.u.).

With “AGTTATTGATTTTCTGAGGATGTTTGTGTTGCATCCTGATCGGAGTCACCTAGTGCAG”, the binding signal was 20200 fluorescence intensity (a.u.).

As to “AGTAATTATTCACATACTAAATTAATCATTAAATGAGCTGCGGAGTCACCTAGTGCAG”, the binding signal is 25300 fluorescence intensity (a.u.).

Turning to “CATAATTGAGTCTGATTGGCACAAACCTAGAGAACATGCCCGGAGTCACCTAGTGCAG”, the binding signal was 65500 fluorescence intensity (a.u.).

With “CGCCTCTTTCTCAATCATTGTATAGGAATGTTTGTTTATGCGGAGTCACCTAGTGCAG”, the binding signal is 7720 fluorescence intensity (a.u.).

Regarding “GTGATTGATTCGATTGATTGCCGCATCCACAGTTCTTTTCCGGAGTCACCTAGTGCAG”, the binding signal was 54700 fluorescence intensity (a.u.).

As to “GTTGATGGCGTAAACTAGAAGTACGCTTCTCCACTGCATCCGGAGTCACCTAGTGCAG”, the binding signal was 3210 fluorescence intensity (a.u.).

Regarding “AATGCTTGATTAATTAGTTGCTTATCCAACCACGCATCATCGGAGTCACCTAGTGCAG”, the binding signal is 31600 fluorescence intensity (a.u.).

“GGTATTGACATGACAGAATTAGCTCGACGTGGAAAACTGGCGGAGTCACCTAGTGCAG”: the binding signal was 34800 fluorescence intensity (a.u.).

In the case of “AATTAACTGTTACATTTGTATGGGCCTAATTAGACCCAGTCGGAGTCACCTAGTGCAG”, the binding signal was 20600 fluorescence intensity (a.u.).

As for “TTAATTGTTTTATCCTATTAATTGGTAGAAGCGGTATTTTCGGAGTCACCTAGTGCAG”, the binding signal is 26700 fluorescence intensity (a.u.).

As for “AGTTTTAAAATTTAAATTTTGGTTGGGTTGGCTGGTAAACCGGAGTCACCTAGTGCAG”, the binding signal is 8490 fluorescence intensity (a.u.).

As for “ATTGATAAGCCTAATTTAGACATCAAACCAAACCAGCCCTCGGAGTCACCTAGTGCAG”, the binding signal was 14300 fluorescence intensity (a.u.).
